Measurements as given in PubChem BioAssay AID1347041 (National Center for Advancing Translational Sciences (NCATS), 2019).
Among all 480,000 compounds or so, about 740 (0.15%) were called active. Inconclusive results, whose numbers are uncertain, are shown with a selection of clear calls. No stated cut-off is given here; in the data, active means activity change below about -30%; inconclusive means mostly about -25% to -30%; inactive means weaker than that. The source holds several records for some structures; these can differ, active in one and inactive in another.

Target: L-lactate dehydrogenase A chain (Homo sapiens) (UniProt P00338)
Assay: qHTS assay for inhibitors of human lactate dehydrogenase;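 further: values are at about 110 or 230 µM; plate controls were DMSO wells for no effect and wells without enzyme for full effect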
Conditions: purified LDHA, NADH/diaphorase-resazurin fluorescence; stronger effect = lower value
Procedure, shortened: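 LDH5 2 nM; NADH 0.06 mM, pyruvate 0.2 mM; 200 mM Tris pH 7.4, EDTA, Tween-20; 5 min RT. Detection: diaphorase 0.133 mg/mL + resazurin 37 µM, fluorescence ex540/em590 at 0 and 20 min; normalized to enzyme-free and DMSO wells.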

Activity change, active:
O=C1C(=Cc2cn(-c3ccccc3)nc2-c2ccc(OCc3ccccc3F)cc2)SC(=S)N1CCS(=O)(=O)O -33.7%, Cc1ccc(S(=O)(=O)N=Nc2c(O)[nH]c3ccccc23)cc1C -36.1%, NCCCC[C@H]1NC(=O)[C@H](CCC(=O)O)NC(=O)c2cc([N+](=O)[O-])cc(I)c2OCC[C@@H](C(N)=O)NC1=O -39.7%, COc1ccc(CN2CCN(Cc3c[nH]c4ccccc34)CC2)cc1OC -31.5%, CN1CCN(CCCNCc2cn(CCC#N)c3ccccc23)CC1 -40.2%, COc1ccc(Br)cc1CN1CCCC(C(=O)N2CCCCCC2)C1 (stereo not given) -32.9%, COc1cc(CNCc2ccc(SC)cc2)cc(OC)c1 -30.7%, N#Cc1nc(-c2ccccc2Cl)oc1N1CCOCC1 -32.4%, O=C(COc1ccccc1F)OCc1cc(=O)n2nc(C3CCCCC3)sc2n1 -35%, CN(C)CCOCCOc1ccccc1-c1ccccc1 -46.9%, NS(=O)(=O)c1ccc(Nc2c([N+](=O)[O-])cncc2[N+](=O)[O-])cc1 -33.5%

Activity change, inconclusive:
C[N+](C)(C)CCCN1C(=O)CCCC1=O -25.6%, O=C(CCCn1c(=O)c2cccn2c2ccccc21)N1CCN(c2cccc(Cl)c2)CC1 -27.3%, CC(C)c1cnc2c(c1SCC(=O)NCc1ccccc1Cl)c(=O)n(C)c(=O)n2C -25.6%, Cc1cc(Br)ccc1OCCN1CC(C)OC(C)C1 (stereo not given) -25.7%, CCN(CC)S(=O)(=O)c1ccc(-c2nnc(SCC(=O)Nc3ccc4c(c3)OCO4)o2)cc1 -28.9%, CC1(C)CC(=O)C2=C(C1)OC1=C(C(=O)CC(C)(C)C1)C2c1cccc(O)c1 -25.2%, O=C(NCCCCc1ccccc1)c1cc2ccccc2oc1=O -28.6%, Cc1csc(CNC(=O)c2sc(C(C)C)nc2C)n1 -26.2%, COc1ccc(CC(=O)NCc2nnc(SCC(=O)c3ccc(Cl)cc3Cl)n2C)cc1 -28.7%, c1ccc(-c2ccc(OCCOCCn3cncn3)cc2)cc1 -26.9%, COc1ccc(C(=O)Nc2ccc(Br)cc2C)cc1Cl -29.6%, COc1ccc(CCNC(=O)CS(=O)(=O)Cc2nc(-c3ccc(C)cc3)oc2C)cc1OC -27.5%, N#C/C(=C\c1ccc(OC(=O)c2ccccc2)cc1)C(=O)Nc1ccccc1 -28.2%, Cc1ccc(/C=N/NC(=O)c2ccc(Br)o2)s1 -25.7%, O=C(NC(c1ccc(Cl)cc1)c1cccnc1)c1ccccc1 (stereo not given) -26.8%, COC(=O)Cn1c(=O)c2c(nc(-n3nc(C)c(C)c3C)n2C)n(C)c1=O -28.4%, Cc1cc(NC(=O)CN2CCN(c3ncccn3)CC2)no1 -27.6%, O=C(N/N=C/C=C\c1ccccc1[N+](=O)[O-])c1cc(-c2ccc3ccccc3c2)n[nH]1 -28%, CC(C)CCNc1nc(C(=O)Nc2nccs2)cs1 -25.3%, O=C(CNCc1ccccn1)Nc1cc(C(F)(F)F)ccc1N1CCOCC1 -26.2%, CCCn1nc(NC(=O)COC)c2cc3cc(C)ccc3nc21 -29.8%, CCC(C)NCCOc1cc(C)cc(C)c1C (stereo not given) -29%, Cc1ccc(S(=O)(=O)N2CCN(C3CC4CCC3C4)CC2)cc1 (stereo not given) -27.9%, CCOc1ccccc1N1CCN(Cc2cccc(OC)c2OC)CC1 -25.1%, Cc1nc2ccc(C(=O)OCC(=O)NC(=O)NC(C)C)cc2nc1C -25.5%, CCOc1cc(C=O)ccc1OCc1ccc(C(=O)O)cc1 -27.2%, CCCC(=O)N(c1ccc(F)cc1)C1C=CS(=O)(=O)C1 (stereo not given) -26.3%, CC(C)c1ccc(C2C3=C(CC(C)(C)CC3=O)OC3=C2C(=O)CC(C)(C)C3)cc1 -25.2%, O=C(NC1CCCCC1)c1ccccc1-c1ncc(-c2ccccc2F)o1 -26.9%, CCOc1ccc(Nc2nc(N)c(C(=O)c3ccc(OC)c(OC)c3)s2)cc1 -26.3%, CC1CCN(CCOCCOc2ccc(Br)cc2Cl)CC1 -26.1%, CS(=O)(=O)c1ccc2nc(NC(=O)CN3CCCCCC3)sc2c1 -26.7%, CC1CN(CCCOc2ccccc2[N+](=O)[O-])CC(C)O1 (stereo not given) -26.2%, CC(C)c1ccc(C(=O)Nc2ccc(-c3nn4cnnc4s3)cc2)cc1 -29%, Cc1cccc(NC(=O)COc2ccc(/C=C\c3[nH]c(=O)[nH]c(=O)c3[N+](=O)[O-])cc2)c1 -28.5%, COc1cccc(NC(=O)CCSc2nc(-c3ccco3)cc(C(F)(F)F)n2)c1 -29%, O=C1CCCC2=C1C(c1cccnc1)N(C(=O)c1ccccc1)c1ccccc1N2 (stereo not given) -28.3%

Activity change, inactive:
COc1ccc(CCNC(=O)N2c3ccccc3Sc3ccccc32)cc1 -4.73%, N#Cc1ccsc1NC(=O)COC(=O)CCS(=O)(=O)c1ccccc1 1.05%, CC1=C(C(=O)Nc2ccccc2)C(c2ccc(C(C)C)cc2)N2C(=O)CSC2=N1 (stereo not given) -4.69%, CC(=O)Nc1cccc(C(=O)NCc2nc(C)cs2)c1 0.502%, O=C(c1ccccc1)N1CCCC(C(=O)N2CCCCC2)C1 (stereo not given) -0.306%, O=C(Nc1ccc2c(c1)OCCO2)c1c(Cl)cccc1Cl -4.93%, CC(C)c1ccc(NC(=S)NCCc2c[nH]c3ccccc23)cc1 -0.92%, Cc1cccc(C)c1NC(=O)c1ccc2sc([C@@H]3O[C@H](CO)[C@H](O)[C@H](O)[C@H]3O)nc2c1 3.71%, Cc1ccc(Cc2c(C)nc3nc(SCC(=O)NCCCN4CCCCC4)nn3c2C)cc1 -9.48%, Cc1[nH]c2ccc(C(=O)NCC(=O)NC(C)C)cc2c1C 1.19%, Cn1c(=O)c2c(nc(NCCc3ccc(F)cc3)n2Cc2ccc(Cl)cc2)n(C)c1=O 9.32%, COC(=O)CNC(=O)c1cc(-c2ccccc2)nc2ccccc12 -10.9%, O=C(NCc1cnn(-c2ccccc2)c1)C1CCN(S(=O)(=O)c2ccccc2C(F)(F)F)CC1 0.956%, COc1cc2ccccc2nn1 -15.3%, CCCc1oc2ccc(NS(=O)(=O)c3ccc(OCC)cc3)cc2c1C(=O)OCC -0.548%, COc1cc(/C=C(/C#N)C(=O)Nc2cccc(C(F)(F)F)c2)ccc1OC(F)F 0.34%, CCCn1nc(C(=O)N2CCN(CC(=O)N3CCCCC3)CC2)c2ccccc2c1=O 10.3%
